Results on 19 variants are retold here after the RNAGym collection of RNA variant scans (doi:10.1073/pnas.2313332121).

B1: TPR 5TU (parent)
chain: GGAUCUUCUCGAUCUAACAAAAAAGACAAAUCUGCCACAAAGCUUGAGAGCAUCUUCGGAUGCAGAGGCGGCAGCCUUCGGUGGCGCGAUAGCGCCAACGUUCUCAACUAUGACACGCAAAACGCGUGCUCCGUUGAAUGGAGUUUAUCAUG

This sample is rich in variants without activity.

The variants in the data set derive from B1. As to the kind of experiment: polymerase ribozyme fitness, log enrichment relative to wild type (log ratio); higher = more active; in vitro selection for triplet polymerase activity. The gist of the method: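 A heterodimeric triplet polymerase ribozyme had each of its subunits mutagenized by PCR into a library, which was transcribed. One round of in vitro selection, done in triplicate, annealed each library with a biotinylated primer, its partner subunit and triplets, then incubated it frozen at −7 °C before gel excision of extended constructs, streptavidin-bead capture and RT-PCR. Fitness is the logarithm of genotype enrichment relative to wild-type enrichment, based on Illumina sequencing of inputs and outputs and inverse-variance-weighted replicate averages. A base-2 logarithm is used, and genotypes were kept only with ≥10 input reads and ≥1 read per output.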
Turning to GGAUCUUCUCAAUUUAACAAAAAAGACAAAUCUGCCACAAAGCUUGAGAGCAUCUUCGGAUGCAGAGGCGGCAGCCUUCGGUGGCGCGAUAGCACCAACGUUCUCAACUAUGACACGCAAAACGCGUGCUCCGUUGAAUGGAGUUUAUCAUG [G11A C14U G94A], the “polymerase ribozyme fitness (log ratio)” value is ≤ -4.2.

On to GGAUCUUCUCAAUCUAACAAAAAAGACAAAUCUGCCACAAAGCUUGAGAGCAUCUUCGGAUGCAGAGGCGGCAGCCUUCGGUGGCGCGAUUGCGCCAACGUUCUCAACUAUGACACGCAAAACGCGUGCUCCGUUGAAUGGAGUUUAUUACG [G11A A91U C149U U151C], for which the “polymerase ribozyme fitness (log ratio)” value was ≤ -4.2.

Regarding GGAUCUUCUCAAUCUAACAAAAAAGACAAAUCUGCCACAAAGCUUGAGAGCGAAUUCGGAUGCAGAGGCGGCAGCCUUCGGUGUCGCGAUAGCGCCAACGUUCUCAACUAUGACACGCAAAACGCGUUCUCUGUUGAAUGGAGUUUAUCAUG [G11A A52G U53A C54A G84U G128U C132U], the “polymerase ribozyme fitness (log ratio)” value was -4.13.

On to GGAUCUUCUCAAUCUAACAAAAAAGACAAAUCUGCCACAAAGCUUGAGAGCAUUUUCGGAAGCAGAGGCGGCAGCCUUCGGUGGCGCGAUAGCGACAACGUUCUCAACUAUGACACGCAAAACGCGUGCUCCGUUGAAUGGAGUUUAUGAUG [G11A C54U U61A C95A C149G], for which the “polymerase ribozyme fitness (log ratio)” value was ≤ -4.2.

As for GGAUCUUCUCAAUCUAACAAAAAAGACAAAUCUGCCACAAAGCUUGAGAGCAUGUUCGGAUGCAGAGGCGGCAGCCUUCGGUGGCGCGAUAGCACCAACGUUCUCAACUAUGACACGCAAAACGCGUGCUCCGUUGAAUGGAGUUUAUCAUG [G11A C54G G94A], the “polymerase ribozyme fitness (log ratio)” value is -2.96.

Take GGAUCUUCUCAAUCUAACAAAAAAGACAAAUCUGCCAUAUAGCUUGAGAGCAUCUUCGGAUGCAGAGGCGGCAGUCUUCGGUGGCACGAUAGCGCCAACGUUCUCAAGUAUGACACGCAAAACCCGUGCUCGGUUGAAUGGAGUUUAUCAUG [G11A C38U A40U C75U G86A C108G G124C C132G]: the “polymerase ribozyme fitness (log ratio)” value was ≤ -4.2.

As to GGAUCUUCUCAAUCUAAGAAAAAAGACAAAUCUGCCACAAAGCUUGAUAGCAUCUUCGGAUGCAGAGGGGGCAGCCUUCGGUGUCGCGAUAGCGCCAACGUUCUCAACUAUGACACGCAAAACGCGUGCUCCGUUGAAUGUAGUUUAUCAUG [G11A C18G G48U C69G G84U G141U], the “polymerase ribozyme fitness (log ratio)” value was ≤ -4.2.

For GGAUCUUCUCAAUGUAACUAAAAAGACAUAUCUGCCACAUAGCUUGAGAGCAUCUUCGGAUGCAGAGGCGGCAGCUUUCGGUGGCGCGAUAGCGCCAACGUUCUCAGCUGUGACACGCAAAACGCGUGCUCCGUUGAAUGGAGUUUAUCAUG [G11A C14G A19U A29U A40U C76U A107G A110G], the “polymerase ribozyme fitness (log ratio)” value is ≤ -4.2.

Take GGAUCUUCUCAAUGUAACAAAAAAGACAAAUCUGCCACAAAGCUUGAGAGCAACUGCGGAUGCAGAGGCGGCAGCCUUCGGUGGCGCGAUAGCGCUAACGUUCUCAACUAUGACACGCAAAACGCGUGCUCCGUUGAAUGGCGUUUAUCAUG [G11A C14G U53A U56G C96U A142C]: the “polymerase ribozyme fitness (log ratio)” value was ≤ -4.2.

For GGAUCUUCUCAAUCUAACAAAAAAGACAAAUCUGCCACAAUGCUUGAGAGCAUCUUCGGGUGCAGAGGCGGCAGCCCUCGGUGGCGAGAUAGCGCCAACGUUCUCAACUAUGACACGCAAAACGCGUGCUCCGUUGAAUGGAGUUUAUCAUG [G11A A41U A60G U77C C87A], the “polymerase ribozyme fitness (log ratio)” value is ≤ -4.2.

In the case of GGAUCUUCUCAAUCUAACAAAAAAGACAAAUCUGCCACAAAGCUUGAGGGCAUCUUCGGUUGCAGAGGCGGCAGCCUUCGGUGGCGCGAUAGCGCCAACGUUCUCAACUAUGACACGCAAAACGCGUGCUCCGUUGAAUGGAGUUUAUCAUG [G11A A49G A60U], the “polymerase ribozyme fitness (log ratio)” value is -2.63.

Take GGAUCUUCUCAAUCUAACAAAAAAGACAAAUCUGCCACAAAGCUUGAGAGCAUUUUCGGAUGCAGAGGUGGCAGCCUUAGGUGGCGCGAUAACGCCAACGUUCACAACUAUGACACGCAAAACGCGUGCUCCGUUGAAUGGAGUUUAUCAUG [G11A C54U C69U C79A G92A U104A]: the “polymerase ribozyme fitness (log ratio)” value is ≤ -4.2.

As for GGAUCUUCUCAAUCUAACAAAAAAGACAAAUCUGCCACAAAGCUUGAGAGCGUCUUCGGAUGCAGAGGCGGCAGCCUUCGGUGGCGCGAUAGCGCCAACGUUCUCAUCUAUGACACGCAAAACGCGUGCUCCGUUGAAUGGAGUUUAUCAUG [G11A A52G A107U], the “polymerase ribozyme fitness (log ratio)” value was ≤ -4.2.

In the case of GGAUCUUCUCAAUCUAACAAAAAAGACAAAUCUGCCACAGAGCUUGAGAGCAUCUUCGGAUGCAGACGCGGCAUCCUUCGGUGACGCGAUAGCGCCAACGUUCUCAACUAUGACACGCAAAACGGGUUCUCCGUUGAAUGGAGUUUAACAUG [G11A A40G G67C G74U G84A C125G G128U U148A], the “polymerase ribozyme fitness (log ratio)” value was ≤ -4.2.

Turning to GGAUCUUCUCAAUCUAACAAAAAAGACAAAUCUGUCACAAAGCUUGAGAGUAUCUUCGGAGGUCGAGGCGGCAGCCUUCGGUGGGGCGAGAGCGCCAACGUUCUCAACUAUGACACGCAAAACGCGUGCUCCGUUGAAUAGAGUUUAUCAUG [G11A C35U C51U U61G C63U A64C C85G U90G G140A], the “polymerase ribozyme fitness (log ratio)” value is ≤ -4.2.

Take GGAUCUUCUCAAUCUAACAAAAAAGACAAAUCUGCCACAACGCUUGAGAACAUCUUCGGAUGCAGAGGCGGCAGCCUUCGGUGGCGCGAUAGCGGCAACGUUCUCAACUAUGACACGCAAAACGCGUGCUCCGUUGAUUGGAGUUUAUCAUG [G11A A41C G50A C95G A138U]: the “polymerase ribozyme fitness (log ratio)” value was ≤ -4.2.

In the case of GGAUCUUCUCAAUGUAACAAAAAAGACAAAUCUGCCACAUAGCUUGAGAGCAUCUUCGGAUGCAGAGGCGGCAGCCUUCGGUGGCGCGAUAGGGCCAACGUUCUCAACUAUGACAUGCAAAACGCGUGCUCCGUUGAAAGGAGUAUAUCAUG [G11A C14G A40U C93G C116U U139A U145A], the “polymerase ribozyme fitness (log ratio)” value is ≤ -4.2.

As for GGAUCUUCUCAAUCUAACAAAAAAGACAAAUCUGCCACAAAGUUUGAGAGCAUUUUCGGAUGCAGAGGCGGCAGCCUUCGGUGGCGCGAUAGCGCCAACGUUCUCUAGUAUAACACGCAAAACGCGUGCUCCGUUGAAUGGAGUUUAUCAUG [G11A C43U C54U A106U C108G G112A], the “polymerase ribozyme fitness (log ratio)” value was ≤ -4.2.

With GGAUCUUCUCAAUCUAACAAAAAAGACAAAUCUGCCACAAAGCUUGAGAGCAUCUUCGGAUGCAGAGGCGGCAGCCUUCGGUGGCGCGAUAGCGCCAACGUUCUCAACUAUGUCACGCAAAACGCGUGCUCCGUUGAAUGGAGUUUAUCAUG [G11A A113U], the “polymerase ribozyme fitness (log ratio)” value is -2.69.
